# Reference: ChEMBL document CHEMBL5606460, “ASAP - DENV-2 NS2B-NS3 protease fluorescence single point” (2024)
# Out of some 2,000 compounds screened, about 110 (5.5%) showed an effect of 50% or more. The list shows a part of the results.
# Target: Genome polyprotein (dengue virus type 2) (UniProt P29990)
# [1] = Thailand/16681/1984, Concentration 25.0 uM, Number of replicates 1.0
smiles,measurement,setting,value
c1ccc(Oc2cccc(CN3CC[C@H](c4c[nH]c5ccccc45)C3)c2)nc1,inhibition,"Thailand/16681/1984, Concentration 49.5 uM, Number of replicates 2.0, Standard deviation 1.2057589164140337 %",1%
same,inhibition,"Thailand/16681/1984, Concentration 99.01 uM, Number of replicates 2.0, Standard deviation 1.4007589396292652 %",2.61%
same,inhibition,"Thailand/16681/1984, Concentration 198.0 uM, Number of replicates 2.0, Standard deviation 2.062519926502942 %",1.89%
CC(C)(COC(=O)c1cccc(F)c1)NC(=O)c1cc(N)cc(Cl)c1,inhibition,"Thailand/16681/1984, Concentration 49.5 uM, Number of replicates 2.0, Standard deviation 2.9102223565882523 %",2.76%
same,inhibition,"Thailand/16681/1984, Concentration 99.01 uM, Number of replicates 2.0, Standard deviation 3.4341693865648852 %",4.65%
same,inhibition,"Thailand/16681/1984, Concentration 198.0 uM, Number of replicates 2.0, Standard deviation 3.020555050969647 %",7.39%
c1ccc2c([C@H]3CCN(Cc4ccon4)C3)c[nH]c2c1,inhibition,"Thailand/16681/1984, Concentration 49.5 uM, Number of replicates 2.0, Standard deviation 1.9476178393933903 %",-2.85%
same,inhibition,"Thailand/16681/1984, Concentration 99.01 uM, Number of replicates 2.0, Standard deviation 2.5164078728535832 %",-2.25%
same,inhibition,"Thailand/16681/1984, Concentration 198.0 uM, Number of replicates 2.0, Standard deviation 2.4110409873352823 %",-1.68%
CC(C)(CO)NC(=O)c1cc(Cl)cc(NC(=O)c2ccc3c(c2)NC(=O)CS3)c1,inhibition,"Thailand/16681/1984, Concentration 49.5 uM, Number of replicates 2.0, Standard deviation 3.127876605906029 %",0.133%
same,inhibition,"Thailand/16681/1984, Concentration 99.01 uM, Number of replicates 2.0, Standard deviation 1.5601810799956624 %",1.68%
same,inhibition,"Thailand/16681/1984, Concentration 198.0 uM, Number of replicates 2.0, Standard deviation 0.7495631561529056 %",4.28%
COC(=O)[C@@H](C)NC(=O)c1cc(OC)nc(N2CCNCC2)n1,inhibition,"Thailand/16681/1984, Concentration 49.5 uM, Number of replicates 2.0, Standard deviation 5.1438793085885886 %",-2.56%
same,inhibition,"Thailand/16681/1984, Concentration 99.01 uM, Number of replicates 2.0, Standard deviation 4.148622532034276 %",-1.91%
same,inhibition,"Thailand/16681/1984, Concentration 198.0 uM, Number of replicates 2.0, Standard deviation 4.004748448377244 %",1.1%
COc1cc(C(=O)NCC2CC2)nc(N2CCNCC2)n1,inhibition,"Thailand/16681/1984, Concentration 49.5 uM, Number of replicates 2.0, Standard deviation 2.873868444891211 %",-2.45%
same,inhibition,"Thailand/16681/1984, Concentration 99.01 uM, Number of replicates 2.0, Standard deviation 2.6541901985408196 %",-0.334%
same,inhibition,"Thailand/16681/1984, Concentration 198.0 uM, Number of replicates 2.0, Standard deviation 1.9095524495454428 %",1.94%
O=C1Nc2ccccc2C[C@]12CCCN2,inhibition,"Thailand/16681/1984, Concentration 49.8 uM, Number of replicates 2.0, Standard deviation 1.0431419184899653 %",-9.22%
same,inhibition,"Thailand/16681/1984, Concentration 99.5 uM, Number of replicates 2.0, Standard deviation 1.491980229847092 %",-6.1%
COc1ccc([C@H](C)NC(=O)C2CCN(c3ccc(C=O)cc3)CC2)cc1,inhibition,[1],12.5%
O=Cc1ccc(N2CCC(C(=O)NCc3cccc(OC(F)F)c3)CC2)cc1,inhibition,[1],13%
COc1cc2c(cc1OC)CN(C(=O)C1CCN(c3ccc(C=O)cc3)CC1)CC2,inhibition,[1],13.9%
CCOC(=O)c1cc(Cn2cc(C3CCNCC3)c(C)n2)on1,inhibition,"Thailand/16681/1984, Concentration 49.5 uM, Number of replicates 2.0, Standard deviation 0.6961838774859187 %",-0.36%
same,inhibition,"Thailand/16681/1984, Concentration 99.01 uM, Number of replicates 2.0, Standard deviation 1.502887560287196 %",-0.752%
same,inhibition,"Thailand/16681/1984, Concentration 198.0 uM, Number of replicates 2.0, Standard deviation 1.2379119200110926 %",0.781%
O=Cc1ccc(N2CCC(C(=O)NCc3ccsc3Br)CC2)cc1,inhibition,[1],10.2%
COc1ccc(NC(=O)C2CCN(c3ccc(C=O)cc3)CC2)c([N+](=O)[O-])c1,inhibition,[1],14.5%
Cc1c(C(=O)NCC(F)(F)c2n[nH]c3c2COCC3)ccc(O)c1NC(=O)c1ccncc1F,inhibition,"Thailand/16681/1984, Concentration 49.5 uM, Number of replicates 2.0, Standard deviation 0.9671482846391245 %",-0.897%
same,inhibition,"Thailand/16681/1984, Concentration 99.01 uM, Number of replicates 2.0, Standard deviation 0.6988285711565531 %",0.173%
same,inhibition,"Thailand/16681/1984, Concentration 198.0 uM, Number of replicates 2.0, Standard deviation 0.7129792701769644 %",2.02%
COc1ccccc1N1CCN(CCCNC(=O)C2CCN(c3ccc(C=O)cc3)CC2)CC1,inhibition,[1],15.3%
O=Cc1ccc(N2CCC(C(=O)NCC3(N4CCOCC4)CCCCC3)CC2)cc1,inhibition,[1],13%
Cc1cc(CO)c2cccc(NC(=O)Cc3csc(Cc4ccccc4)n3)c2n1,inhibition,"Thailand/16681/1984, Concentration 49.95 uM, Number of replicates 2.0, Standard deviation 3.352344146166683 %",22.2%
same,inhibition,"Thailand/16681/1984, Concentration 99.9 uM, Number of replicates 2.0, Standard deviation 10.05500534367407 %",35.6%
COc1cc(NC(=O)C2CCN(c3ccc(C=O)cc3)CC2)ccc1Br,inhibition,[1],12.2%
O=Cc1ccc(N2CCC(C(=O)Nc3cccc(Cl)c3Br)CC2)cc1,inhibition,[1],12.5%
Cc1cc(CO)c2cccc(Cc3ccccc3NC(=O)c3cc(C(=O)O)[nH]n3)c2n1,inhibition,"Thailand/16681/1984, Concentration 49.95 uM, Number of replicates 2.0, Standard deviation 1.2109368674878396 %",2.16%
same,inhibition,"Thailand/16681/1984, Concentration 99.9 uM, Number of replicates 2.0, Standard deviation 1.1250841585396334 %",10.9%
Cc1cccc(N2CCN(C(=O)C3CCN(c4ccc(C=O)cc4)CC3)CC2)n1,inhibition,[1],16.5%
O=Cc1ccc(N2CCC(C(=O)Nc3cccc4c(=O)[nH][nH]c(=O)c34)CC2)cc1,inhibition,[1],16%
N#Cc1cccc(-c2nc3c(C(=O)Nc4ccncc4)cc(Cl)cc3[nH]2)c1,inhibition,"Thailand/16681/1984, Concentration 99.5 uM, Number of replicates 2.0, Standard deviation 0.8007493235576281 %",6.92%
same,inhibition,"Thailand/16681/1984, Concentration 295.6 uM, Number of replicates 2.0, Standard deviation 3.318711635404566 %",36.2%
